Reference: PubChem BioAssay AID588591 (National Center for Advancing Translational Sciences (NCATS), 2011)
The campaign covered roughly 390,000 compounds. About 4,700 (1.2%) were called active. The shares of active, inactive and inconclusive entries below differ from those in the screen. Calls come from the whole dose curve; as a rule, active = well fitted inhibition curve with a large enough effect; inconclusive = small, poorly fitted or top-dose-only effect, or another doubt; inactive = no such curve, though single readings can be large or run the other way. Where the call is inconclusive, the potency comes from a doubtful curve fit. A structure can be active in one record and inactive in another.

target: DNA polymerase eta (Homo sapiens) (UniProt Q9Y253); test: qHTS for Inhibitors of Polymerase Eta; settings: recombinant Pol eta, fluorescent DNA replication assay; series mostly up to 114 µM
From the text: The Y-family of DNA polymerases, such as Pol eta, are specifically involved in DNA repair. Pol eta copies undamaged DNA with a lower fidelity than other DNA-directed polymerases. However, it accurately replicates UV-damaged DNA; when thymine dimers are present, this polymerase inserts the complementary nucleotides in the newly synthesized DNA, thereby bypassing the lesion and suppressing the mutagenic effect of UV-induced DNA damage. […] Thus, while pol eta's (and most likely iota's) normal function is to protect humans against the deleterious consequences of DNA damage, under certain conditions they can have deleterious effects on human health. As a consequence, we propose to utilize a high throughput replication assay to identify small molecule inhibitors of pol eta. In a collaboration between the National Institute of Child Health & Human Development (NICHD) and NIH Chemical Genomics Center, a high-throughput, fluorescent screen was developed to screen the NIH Molecular Libraries Small Molecule Repository (MLSMR). This screen is used to identify inhibitors of pol eta. NIH Chemical Genomics Center [NCGC] NIH Molecular Libraries Probe Centers Network [MLPCN] MLPCN Grant: MH090825 Assay Submitter (PI): Roger Woodgate, NICHD)
Three microliters of reagents (buffer in column 3 and 4 as negative control and 10 nM Pol eta in columns 1, 2, and 5-48) were dispensed into a 1,536-well black solid-bottomed plate. Compounds (23 nL) were transferred via Kalypsys pin tool equipped with 1536-pin array. The plates were then incubated for 15 min at room temperature, and 1 µL substrate (50 nM final concentration) was added to start the reaction and kinetically read twice at 0 min and 10 min on the Viewlux reader
Potency is the fitted concentration of half-maximal effect; tags give direction and shape of the fitted curve.

Sequence of UniProt Q9Y253 (Q9Y253 whole entry, looked up): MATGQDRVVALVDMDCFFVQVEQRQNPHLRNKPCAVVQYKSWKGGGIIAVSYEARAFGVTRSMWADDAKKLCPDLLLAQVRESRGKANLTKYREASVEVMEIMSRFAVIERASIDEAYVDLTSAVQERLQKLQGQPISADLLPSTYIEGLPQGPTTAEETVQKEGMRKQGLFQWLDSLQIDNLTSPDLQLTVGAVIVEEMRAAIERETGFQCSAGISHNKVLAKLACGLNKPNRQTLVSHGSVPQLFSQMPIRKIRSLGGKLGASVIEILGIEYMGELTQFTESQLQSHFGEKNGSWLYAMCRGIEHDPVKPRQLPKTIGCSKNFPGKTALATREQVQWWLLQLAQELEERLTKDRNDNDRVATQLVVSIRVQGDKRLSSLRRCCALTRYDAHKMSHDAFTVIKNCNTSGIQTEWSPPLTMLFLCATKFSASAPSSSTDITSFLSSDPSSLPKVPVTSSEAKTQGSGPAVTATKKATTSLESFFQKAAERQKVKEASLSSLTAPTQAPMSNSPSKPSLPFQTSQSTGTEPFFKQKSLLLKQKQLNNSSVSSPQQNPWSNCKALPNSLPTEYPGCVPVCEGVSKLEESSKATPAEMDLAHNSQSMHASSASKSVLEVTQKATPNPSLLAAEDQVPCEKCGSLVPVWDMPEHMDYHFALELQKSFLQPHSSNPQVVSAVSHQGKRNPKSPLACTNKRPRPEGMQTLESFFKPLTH

Compound	Potency
COc1ccc2c(c1)NP(=S)(c1ccccc1)N2 (stereo unspecified)	inconclusive: 12.6 µM [inhibitor, partial curve, poor fit]
Cc1cccc(N2C(=O)/C(=C/c3ccc(N4CCN(C)CC4)o3)C(=O)NC2=S)c1C	active: 20 µM
CC[n+]1c(/C=C/N(C)c2ccccc2)sc2ccc(Cl)cc21	inactive
C=CCc1cc(C=C2C(=O)N(C)C(=O)N(C)C2=O)cc(OCC)c1OCc1ccccc1	inconclusive: 31.6 µM [inhibitor, partial curve, poor fit]
CCC(=O)Nc1cc(C(=O)O)ccc1S(=O)(=O)c1ccc(C)cc1	active: 5.62 µM
CN1C(=O)/C(=C/c2ccc(Cl)s2)C(=O)NC1=S	inconclusive: 56.2 µM [inhibitor, partial curve, poor fit]
CC(C)COc1ccc(Cc2c(O)[nH]c(=S)[nH]c2=O)cc1	inactive
C=C1C(=O)OC2CC(C)C3C=CC(=O)C3(C)C(O)C12 (stereo unspecified)	inconclusive: 31.6 µM [inhibitor, partial curve, poor fit]
Cc1ccc(/C=C2\C(=O)NC(=O)N(CCc3ccc(F)cc3)C2=O)s1	inactive
O=c1[nH]c(=O)n(Cc2ccco2)c(O)c1/C=N/N1CCCCC1	active: 20 µM
O=C(O)c1ccc(-n2c(O)c(/C=C3\C=Nc4ccccc43)c(=O)[nH]c2=O)cc1	active: 50.1 µM
COc1ccc(-n2c(/C=C/c3ccc(O)c(O)c3)nc3ccccc3c2=O)cc1	inconclusive: 31.6 µM [inhibitor, partial curve, poor fit]
CCn1c(C)c(C(=O)Nc2ccc(OC)cc2)c2cc(OC)ccc21	inactive
Cc1oc(-c2ccc(Cl)cc2)nc1CN1C(=O)CN=C(c2ccccc2)c2cc(Cl)ccc21	inconclusive: 35.5 µM [inhibitor, partial curve, poor fit]
C=CCN1C(=O)/C(=C/c2ccc(Br)s2)C(=O)NC1=S	active: 20 µM
COC(=O)C1=C(c2ccccc2OCc2ccccc2)C[C@@H]2CC[C@H]1N2C(=O)NCc1ccc(F)cc1	inconclusive: 89.1 µM [inhibitor, partial curve, poor fit]
COc1cc2cc(C(=O)N3CC(COS(C)(=O)=O)c4ccc(O)cc43)[nH]c2c(OC)c1OC (stereo unspecified)	active: 3.16 µM
COC(=O)C1=C(c2ccccc2OCc2ccccc2)C[C@@H]2CC[C@H]1N2C(=O)NCc1ccc(C(F)(F)F)cc1	inconclusive: 79.4 µM [inhibitor, partial curve, poor fit]
CCn1c(=O)cc(OCC(=O)N2CCC3(CC2)OCCO3)c2ccccc21	inactive
C/C(=N\NC(=O)c1ccccc1O)c1c(O)n(Cc2ccccc2)c(=O)[nH]c1=O	inactive
COc1cc2c3c(c1OC)Oc1ccc(cc1)C[C@H]1c4c(cc(OC)c(OC)c4Oc4ccc(cc4)C[C@@H]3N(C)CC2)CCN1C	inactive
COc1cc(CN2CCNCC2)cc(OC)c1OC	inactive
CN(C)CC(C(=O)Cc1ccccc1)c1ccccc1 (stereo unspecified)	inactive
CC1(C)OC(c2ccccc2)=C/C(=C/C=C2C(=O)NC(=O)NC2=O)O1	inconclusive: 28.2 µM [inhibitor, full curve]

Compound	Potency
NN=C1C(Cl)=C(Cl)C(Cl)=C1Cl	inconclusive: 25.1 µM [inhibitor, partial curve, poor fit]
Cc1cc(/C=C2\C(=O)NC(=O)N(c3ccc(Cl)cc3)C2=O)c(C)n1-c1cccc(C(=O)O)c1	active: 20 µM
Cc1cc(/C=C2/C(=O)NC(=O)N(Cc3ccco3)C2=O)c(C)n1-c1ccccc1O	active: 50.1 µM
CCCN1CCC[C@@H](c2cccc(C#N)c2)C1	inactive
O=Nc1c(O)c2ccccc2c2ccccc12	inconclusive: 89.1 µM [inhibitor, single point]
CCn1c(C)cc(/C=C2\C(=O)NC(=O)N(c3ccccc3C)C2=O)c1C	inactive
Cc1cccc(N2C(=O)/C(=C/c3ccc(CN(CCC#N)S(C)(=O)=O)o3)C(=O)NC2=S)c1	active: 6.31 µM
CN1C(=O)C(=Cc2ccccc2Oc2ccc(Cl)c(F)c2)C(=O)N(C)C1=O	inconclusive: 14.1 µM [inhibitor, partial curve, poor fit]
Cc1cc(C=C2C(=O)NC(=S)NC2=O)c(C)n1C1CCCC1	inconclusive: 56.2 µM [inhibitor, partial curve, poor fit]
Cn1cccc1/C=C1\C(=O)NC(=O)N(Cc2ccco2)C1=O	active: 10 µM
CCCCCn1c(=O)c(C(=O)NCc2ccco2)c(O)c2ccccc21	inconclusive: 89.1 µM [inhibitor, partial curve, poor fit]
Cc1cc(C)cc(NC(=O)Cn2c(=O)oc3cc(S(=O)(=O)N4CC(C)CC(C)C4)ccc32)c1 (stereo unspecified)	inconclusive: 79.4 µM [inhibitor, partial curve, poor fit]
Cc1ccc2c(c1)N(N=O)CCC2	active: 89.1 µM
Cc1ccc(NC(=O)N2CC2)cc1NC(=O)N1CC1	inactive
COc1ccc(NC(=O)[C@@H](NC(=O)N2C[C@H]3C[C@@H](C2)c2cccc(=O)n2C3)C(C)C)cc1	inconclusive: 100 µM [inhibitor, partial curve, poor fit]
Fc1ccc(NC(=S)NC2CC3CCC(C2)N3Cc2ccco2)cc1 (stereo unspecified)	inconclusive: 89.1 µM [inhibitor, single point]
COc1cc2c(cc1O)C[C@H]1NCCc3cc4c(c-2c31)OCO4	inconclusive: 25.1 µM [inhibitor, full curve]
CCCCn1c(O)c(/C=N/NC(=O)c2ccncc2)c(=O)[nH]c1=O	inactive
Cc1ccc(C(=O)COC(=O)c2cccc(NC(=O)c3ccc(Br)cc3)c2)cc1	inconclusive: 79.4 µM [inhibitor, partial curve, poor fit]
COC(=O)C1=Nc2ccccc2/C1=C\c1c(O)n(-c2cc(OC)ccc2OC)c(=O)[nH]c1=O	inconclusive: 17.8 µM [inhibitor, full curve, poor fit]
CC(C)CN(CC(C)C)c1ccc(C=C2C(=O)NC(=S)NC2=O)cc1[N+](=O)[O-]	active: 25.1 µM
Cn1c(=O)c2c(nc(N/N=C/c3c(O)n(-c4ccccc4)c(=S)[nH]c3=O)n2C)n(C)c1=O	inconclusive: 20 µM [inhibitor, partial curve, poor fit]
O=c1c2ccccc2nc(-c2ccco2)n1-c1nccs1	inconclusive: 22.4 µM [inhibitor, full curve, poor fit]
CNc1cc(Cl)c2nonc2c1[N+](=O)[O-]	inactive

Compound	Potency
Cc1cc(/C=C2\C(=O)NC(=O)N(Cc3ccccc3Cl)C2=O)c(C)n1-c1ccc(C(=O)O)cc1	active: 10 µM
CN1C(=O)NC(=O)/C(=C/c2ccc(C(=O)O)cc2)C1=O	inconclusive: 89.1 µM [inhibitor, partial curve, poor fit]
Cc1cc(/C=C2\C(=O)NC(=O)N(Cc3ccccc3)C2=O)c(C)n1-c1ccc(Cl)c(C(=O)O)c1	active: 1.78 µM
O=c1[nH]c(=O)n(Cc2ccccc2Cl)c(O)c1/C=C1/C=CC=N1	inconclusive: 3.98 µM [inhibitor, full curve, poor fit]
Cc1cc(/C=C2/C(=O)NC(=O)N(Cc3ccco3)C2=O)c(C)n1-c1ccc(C(=O)O)cc1	active: 17.8 µM
N[C@@H](Cc1cc(I)c(O)c(I)c1)C(=O)O	active: 39.8 µM
O=C1C=CC2C3C(=O)N(c4ccccc4)C(=O)C3C1N2Cc1ccccc1 (stereo unspecified)	inconclusive: 31.6 µM [inhibitor, partial curve, poor fit]
O=C1NC(=S)NC(=O)C1c1ccccc1	inactive
Cn1cccc1/C=C1\C(=O)NC(=O)N(Cc2ccccc2)C1=O	active: 35.5 µM
CN1C(=O)NC(=O)/C(=C\c2ccc([N+](=O)[O-])o2)C1=O	active: 2.24 µM
CC1CCCC(C2(O)C(=O)Nc3ccccc32)C1=O (stereo unspecified)	inconclusive: 39.8 µM [inhibitor, partial curve, poor fit]
CCOc1ccc2nc(N=Nc3c(O)[nH]c(=O)[nH]c3=O)sc2c1	inconclusive: 89.1 µM [inhibitor, partial curve, poor fit]
Cc1ccc(/C=C2\C(=O)NC(=O)N(Cc3ccccc3Cl)C2=O)o1	active: 79.4 µM
COc1cccc(N2C(=O)NC(=O)/C(=C/c3ccc4c(c3)Cc3ccccc3-4)C2=O)c1	inactive
O=c1cc(-c2ccc(O)c(O)c2)oc2c(C3O[C@H](CO)[C@@H](O)[C@H](O)[C@H]3O)c(O)cc(O)c12 (stereo partly specified)	inconclusive: 14.1 µM [inhibitor, partial curve, poor fit]
C=CCN1C(=O)/C(=C/c2ccc3c(c2)CCCN3CCC)C(=O)NC1=S	active: 70.8 µM
O=C(CSc1nnc(NC(=O)c2ccccc2[N+](=O)[O-])s1)NCc1ccco1	inconclusive: 35.5 µM [inhibitor, full curve]
CNc1ccc2nc3ccccc3[n+](C)c2c1	active: 50.1 µM
COC(=O)C1=C(c2cccc(C#N)c2)C[C@@H]2CC[C@H]1N2C(=O)NCc1ccc(F)cc1	inactive
N#CC(C#N)=Cc1ccc(O)c(O)c1	active: 7.94 µM
CCOc1ccc(-c2cc(C)n3nc(C(=O)Nc4ccc(C)c(C)c4)cc3n2)cc1	active: 70.8 µM
O=[N+]([O-])c1cccc2c([N+](=O)[O-])cccc12	inactive
O=C1NC(=O)C(=Cc2ccc(-c3ccc(S(=O)(=O)N4CCOCC4)cc3)o2)C(=O)N1	inactive
